Test results published in PubChem BioAssay AID686978 (National Center for Advancing Translational Sciences (NCATS), 2013).
Values joined by “and” are separate entries in the source; they are usually repeats but may differ in a detail not shown here. Identical values can stand only once. Out of some 420,000 compounds screened, about 64,000 (15%) were called active. Inconclusive results, whose numbers are uncertain, are shown with a selection of clear calls. Calls come from the whole dose curve; as a rule, active = well fitted inhibition curve with a large enough effect; inconclusive = small, poorly fitted or top-dose-only effect; inactive = flat fitted curve, though single readings scatter. No potency is given beside an inconclusive call; the fits are too rough.

assay: qHTS for Inhibitors of human tyrosyl-DNA phosphodiesterase 1 (TDP1): qHTS in cells in absence of CPT; details: DT40 Tdp1-/- hTDP1 cells, no CPT, ATP luminescence, 48 h; activity change, negative = growth inhibition: at 46.2 µM (top of the series) unless noted; note: nearly all actives have a fitted effect of over 55% in size
Outline: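 Growth kinetics read by CellTiter-Glo luminescence after ≥48 hr at 37 °C. Cells: DT40 Tdp1-/- stably carrying human TDP1, 400 per well, compound exposure in the absence of CPT (DMSO vehicle).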
% is set by controls: 0 for no effect and ±100 for the full control effect; potency is the fitted concentration of half-maximal effect; tags give direction and shape of the fitted curve.

| Structure (SMILES) | Potency | activity change, negative = growth inhibition |
| --- | --- | --- |
| CCOC(=O)c1ccc(N2CCN(c3cc(C)ccc3C)CC2)c(N)c1 | active: 16.4 µM | – |
| O=S(=O)(O)CCN1CCOCC1 | inactive | – |
| O=C(O)c1nn2cc(CCO)cnc2c1Cl | inactive | – |
| Cc1ccc(-c2nc(CS(=O)CC(=O)NC3CCCC3)c(C)o2)cc1 (stereo not drawn) | inconclusive [inhibitor, single point] | – |
| Cc1ccnc(NC(=O)c2ccc(NC(=O)c3ccco3)cc2)c1 | inconclusive [inhibitor, partial curve, poor fit] | – |
| Cc1ccn2cc(-c3cccc([N+](=O)[O-])c3)nc2c1 | inactive | – |
| CCCCOc1ccc(-c2nnn(CC(=O)Nc3ncc(CC(=O)OCC)s3)n2)cc1 | inconclusive [inhibitor, partial curve, poor fit] | – |
| Cc1cc(C)c(C)c(S(=O)(=O)N2CCC(C(=O)Nc3ccncc3)CC2)c1C | active: 8.2 µM | – |
| CCN(Cc1ccccc1)C(=O)CN1C(=O)NC2(CC(C)CC(C)(C)C2)C1=O (stereo not drawn) | inconclusive [inhibitor, single point] | – |
| CCOC(=O)CC(NC(=O)c1cccc2c1C(=O)N(Cc1cccnc1)C2)c1ccc(OCC)c(OC)c1 (stereo not drawn) | inconclusive [inhibitor, partial curve, poor fit] | – |
| CCc1ccc2nc(Nc3nc(COC)cc(=O)[nH]3)nc(C)c2c1 | active: 23.1 µM | – |
| Nc1cc(=O)[nH]c(SCCSc2ccc(F)cc2)n1 | inconclusive [inhibitor, single point] | – |
| COc1ccccc1CNCC(=O)Nc1ccc(C#N)cc1 | inconclusive [inhibitor, single point] | – |
| O=C(c1ccncc1)N1CCN(C(=O)c2cccs2)CC1 | inactive | – |
| Cc1cccc(C)c1NC(=O)C(c1ccc([N+](=O)[O-])cc1)N(C)C(=O)c1ccccn1 (stereo not drawn) | active: 3.26 µM | – |
| COc1ccc2c(c1)CCc1c(C(=O)Nc3ccc(C#N)cc3)noc1-2 | inactive | – |
| COc1ccc(NS(=O)(=O)c2ccc(Oc3c(C#N)cccc3C#N)cc2)cc1 | active: 5.8 µM | – |
| CC(C(=O)N1CCCc2ccccc21)N1C(=O)c2ccccc2C1=O (stereo not drawn) | inconclusive [inhibitor, full curve, poor fit] | – |
| COc1cccc(CNC(=O)Cn2nc(N3CCN(c4ccccc4OC)CC3)ccc2=O)c1 | active: 20.6 µM | – |
| CC1(C)CC(N2CCCCC2)=CC(=[N+]2CCCCC2)C1 | active: 0.184 µM | – |
| COC(=O)c1c(C)[nH]c(C)c1C(=O)c1ccccc1Cc1ccccc1 | active: 26.6 µM and active: 16 µM and active: 7.31 µM | – |
| NS(=O)(=O)c1cccc(NC(=O)CSc2ncnc3ccccc23)c1 | inconclusive [inhibitor, single point] | – |
| O=C(CNCc1cccs1)Nc1cc(S(=O)(=O)N2CCCC2)ccc1Cl | inconclusive [inhibitor, full curve, poor fit] | – |

| Structure (SMILES) | Potency | activity change, negative = growth inhibition |
| --- | --- | --- |
| Cc1ccccc1NC(=O)c1ccc(Nc2c([N+](=O)[O-])cc([N+](=O)[O-])c3ccccc23)cc1 | active: 23.1 µM | – |
| CCOC(=O)N1CCN(C(=O)c2ccc(C#CC3(O)CCCCC3)cc2)CC1 | inconclusive [inhibitor, single point] | – |
| O=C(N/N=C/c1cccs1)c1ccc2ccccc2c1 | active: 20.6 µM | – |
| COc1ccc(-n2c(SCc3ccccc3)nc3c([nH]c4ccccc43)c2=O)cc1 | active: 23.1 µM | – |
| Cc1nn(C)c(C)c1S(=O)(=O)N(CC(=O)N1CCc2ccccc2C1)c1ccc(C(C)C)cc1 | inconclusive [inhibitor, single point] | – |
| O=C(Nc1ccc(N2CCOCC2)cc1)c1ccc2nc(-c3ccco3)c(-c3ccco3)nc2c1 | – | inconclusive: -19.6% [inhibitor] |
| Cc1cc(C)c(C)c(OCC(=O)NCc2nc(-c3ccccc3)no2)c1 | inactive | – |
| CC/C(=N/Nc1cccc(C)c1)c1cnnc(SC)n1 | inconclusive [inhibitor, single point] | – |
| COc1ccc(C(O)c2ncc(-c3cccc(C(F)(F)F)c3)[nH]2)cc1F (stereo not drawn) | inconclusive [inhibitor, partial curve, poor fit] | – |
| CCOc1ccccc1OCCCC(=O)Nc1ccc(Cl)c(S(=O)(=O)N2CCOCC2)c1 | inconclusive [inhibitor, single point] | – |
| O=C1NC(CCc2ccccc2)C(=O)N1Cc1cccc2ccccc12 (stereo not drawn) | inconclusive [inhibitor, single point] | – |
| CC(C)C(=O)N1CCc2cc(-c3csc(N)n3)ccc21 | inconclusive [inhibitor, single point] | – |
| COc1ccc2nc(SCC(=O)Nc3ccc4sc(C)nc4c3)c(C#N)cc2c1 | active: 8.2 µM | – |
| COc1ccc(OCC(=O)Nc2sc3c(c2C(=O)NCC2CCCO2)CCC3)cc1 (stereo not drawn) | inconclusive [inhibitor, single point] | – |
| CCOC(=O)C(=O)/C(C#N)=C/Nc1ccccc1 | inactive | – |
| CN1CCCCCC1C(=O)NCC1Cc2cc(-c3cnccn3)ccc2O1 (stereo not drawn) | inconclusive [inhibitor, partial curve, poor fit] | – |
| CC1=C(C(=O)N(C(C)C)C(C)C)CC(CC(=O)NCCCN(C)C)C(=O)N1Cc1ccc(C(C)(C)C)cc1 (stereo not drawn) | inconclusive [inhibitor, single point] | – |
| Cc1ccc(Cn2c(C)c(C(=O)NCc3ccc(Cl)c(Cl)c3)sc2=O)cc1 | inconclusive [inhibitor, single point] | – |
| O=C(Nc1ccc(F)cc1)N(Cc1ccco1)Cc1cc2cc3c(cc2[nH]c1=O)OCO3 | active: 23.1 µM | – |
| Cn1cc(CNC(=O)c2cc(-c3ccccc3)nc3ccc(Br)cc23)cn1 | inconclusive [inhibitor, single point] | – |
| CCCn1ncc(CN2CCC(CO)(Cc3ccc(OC)cc3)CC2)c1C | inconclusive [inhibitor, single point] | – |
| O=C(NCC(c1ccco1)N1CCc2ccccc21)C(=O)Nc1ccccc1 (stereo not drawn) | inconclusive [inhibitor, partial curve] | – |
| CC(C)C[C@H]1CN([C@@H](Cc2ccccc2)CN2CCC[C@H]2CN2C(=O)C(=O)NC[C@@H]2Cc2ccc(O)cc2)C(=O)C(=O)N1CC1CCCCCC1 | active: 16.4 µM | – |

| Structure (SMILES) | Potency | activity change, negative = growth inhibition |
| --- | --- | --- |
| CCOc1ccc(-n2c(=O)c3c(C)c(C)sc3n(Cc3ccccc3C)c2=O)cc1 | inactive | – |
| COCCCNc1nc2ccccc2nc1NS(=O)(=O)c1ccc(OC)cc1 | inconclusive [inhibitor, single point] | – |
| CC(C)(C)NC(=O)c1ccc(C(=O)NC(C)(C)C)cc1 | – | inconclusive: -27.1% [inhibitor] |
| COc1cc(S(=O)(=O)n2ccc(C)n2)ccc1Cl | inconclusive [inhibitor, partial curve, poor fit] | – |
| CC(OC(=O)c1cccc(N(C)C)c1)C(=O)N1CCc2ccccc2C1 (stereo not drawn) | inconclusive [inhibitor, single point] | – |
| CCN(CC)c1ccc(S(=O)(=O)N2CCOCC2)cc1NC(=O)COC(=O)/C=C/c1ccco1 | active: 25.9 µM | – |
| C=CCN1C(=O)CSc2ccc(C(=O)NC(C)c3ccccc3)cc21 (stereo not drawn) | inactive | – |
| O=C(Nc1ccc(F)cc1F)c1ccccc1NC(=O)C1CC=CCC1C(=O)O (stereo not drawn) | inconclusive [inhibitor, partial curve] | – |
| O=C(NCc1ccc2c(c1)OCO2)Nc1ccc([N+](=O)[O-])cc1 | active: 4.11 µM | – |
| COc1cccc(N2CCN(C(=O)c3cc4c(OC)c(OC)c(OC)cc4[nH]3)CC2)c1 | inconclusive [inhibitor, single point] | – |
| CC(C)CCn1c(=O)c2sccc2n2c(CCCC(=O)N3CCN(c4ccccn4)CC3)nnc12 | inactive | – |
| CC(C)(C)c1csc(NNC(=O)c2ccc(Br)cc2)n1 | inconclusive [inhibitor, single point] | – |
| CCCNc1c(NS(=O)(=O)c2ccc(NC(=O)CC)cc2)c(=O)oc2ccccc12 | inconclusive [inhibitor, partial curve] | – |
| COc1ccc(N(C(=O)c2ccc(C)cc2)S(=O)(=O)c2cccs2)cc1 | inconclusive [inhibitor, partial curve] | – |
| COc1cc(NC(=O)c2ccnnc2)cc(C(=O)Nc2cccc(C(F)(F)F)c2)c1 | – | inconclusive: -33.6% [inhibitor] |
| CC(=O)c1cccc(NC(=O)c2ccc(N(Cc3ccccc3)S(C)(=O)=O)cc2)c1 | inconclusive [inhibitor, single point] | – |
| Cc1cc(C)c(S(=O)(=O)Nc2ccc3oc4c(c3c2)C(=O)CC(C)(C)C4)cc1C | inconclusive [inhibitor, single point] | – |
| CCOC(=O)N1CCN(S(=O)(=O)/C=C/c2ccccc2)CC1 | inactive | – |
| COc1cc(OC)c(NC(=O)c2cn(C3CCCC3)c(=O)c3c2c2ccccc2n3C)cc1Cl | inconclusive [inhibitor, single point] | – |
| COc1cccc(/C=C/c2nc(S(=O)(=O)c3ccccc3)c(N(C)C)o2)c1 | inconclusive [inhibitor, single point] | – |
| O=C(c1ccc(Br)cc1)N(Cc1cccs1)c1ccc(F)cc1 | inconclusive [inhibitor, single point] | – |
| CN1CCN(C(=O)Cn2ncc3c4ccccc4n(Cc4ccc(F)cc4)c3c2=O)CC1 | active: 7.31 µM | – |
